Assay results as given in patent US20230272119A1 (MARENGO THERAPEUTICS, published 2023).

Columns and labels:
[1] = target: T1, α-IL12β heavy-hCHIg (SEQ ID NO: 172) (Homo sapiens (Human), UniProt P0DOX5 1-449 = IgG part); test: KappaSelect/LambdaFabSelect resin analysis of multispecific molecule 8, reduced gel
T1 construct: full heavy chain, human Fc without knobs-into-holes mutations; germline VH3-33*01; also called HCP1 of multispecific molecule 8

[2] = target: T2, α-IL12β heavy-hCHIg_Hole_Cys (SEQ ID NO: 170) (Homo sapiens (Human), UniProt P0DOX5 1-449 = IgG part); test: KappaSelect/LambdaFabSelect resin analysis of multispecific molecule 9, reduced gel
T2 construct: full heavy chain, human Fc hole; Fab analysed after papain cleavage in the MS assay; germline VH3-33*01; also called HCP1 of multispecific molecules 3 and 9

B1: α-IL12β light-hCLIg_vl-IL2 (SEQ ID NO: 173) (other)
light: QSVLTQPPSVSGAPGQRVTISCSGSRSNIGSNTVKWYQQLPGTAPKLLIYYNDQRPSGVPDRFSGSKSGTSASLAITGLQAEDEADYYCQSYDRYTHPALLFGTGTKVTVLGQPKANPTVTLFPPSSEELQANKATLVCLISDFYPGAVTVAWKADGSPVKAGVETTKPSKQSNNKYAASSYLSLTPEQWKSHRSYSCQVTHEGSTVEKTVAPTECSGGGGSGGGGSGGGGS[about 150 residues not printed]
notes: lambda light chain with C-terminal IL-2 fusion; germline Vl1-44*01; also called LLCP of multispecific molecules 8 and 9
- binding result [1]: binds
- binding result [2]: binds
